According to the supplement of paper PMC3334620:
In all, about 33,000 sequences were measured (“E-score (-0.5 to 0.5)”: median about -0.016, highest 2% from about 0.31 on). The list shows a part of the results.

target: Cst6 (UniProt P40535); test: PBM E-score (8-mer binding enrichment) (E-score (-0.5 to 0.5)); higher = stronger / more preferred TF binding; most listed sequences are background and not binding sites; details: protein concentration: 200 nM; construct: GST-DNA-binding domain
Method in brief: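 E-scores (a modified Wilcoxon-Mann-Whitney statistic) were assigned by the Universal PBM Analysis Suite to every ungapped eight-base word pooled with its reverse complement. The input came from universal all-10-mer Agilent arrays made double-stranded by primer extension and probed with GST-tagged yeast transcription factors at about 100-200 nM. Fluorescent anti-GST detected bound protein, and masliner normalised the scans.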

Row | Sequence | PBM E-score
1 | AGCCTGTA | -0.142
2 | GCGTAAGA | 0.199
3 | AACGGAGG | -0.125
4 | AATCTGTA | 0.0612
5 | ATCACATC | 0.176
6 | GTCCTACA | -0.0568
7 | ACTTGATC | 0.105
8 | GGACGTTA | 0.174
9 | AGCATAAG | -0.0844
10 | AGACTGCT | -0.189
11 | AGATCTGC | 0.0314
12 | GCGTTCCC | -0.223
13 | AAACATCT | 0.0978
14 | GGTATCCA | -0.143
15 | GTTGGTCA | 0.163
16 | AACTAGCA | -0.141
17 | ACATCCTG | 0.0542
18 | AGTAATCG | 0.118
19 | AAACGCCG | 0.36
20 | AGTCTAAC | -0.146
21 | ACCTCTGA | 0.0406
22 | GAGAGGGC | -0.369
23 | GCAACACA | -0.0263
24 | AACCATGT | 0.0652
25 | ACCGAATG | 0.147

Row | Sequence | PBM E-score
26 | CATTTAAC | 0.0726
27 | CCCAAGGA | -0.139
28 | CTCGCCAC | -0.137
29 | GTATCGAC | 0.0658
30 | ATTCACCG | 0.132
31 | CAACGGGG | -0.0854
32 | CCGTCAAG | -0.129
33 | AACAATAA | 0.204
34 | ATCACCAT | 0.294
35 | AGTGATTC | 0.112
36 | ACGGTAAT | 0.126
37 | ACATCAGA | 0.16
38 | AAAGGCCC | -0.0654
39 | AGCATTCA | -0.0134
40 | GATGCATC | 0.191
41 | ATCCATAA | 0.176
42 | GTAGAGTA | 0.0275
43 | GGTCACAA | -0.0375
44 | GACTAATC | 0.0508
45 | GTCCCAAC | 0.082
46 | CAAGGTGC | -0.0713
47 | ACTAATTC | 0.103
48 | AACCTGGC | -0.199
49 | CGAGATGA | 0.074
50 | CCCCTGGC | -0.364

Row | Sequence | PBM E-score
51 | CAGTGAAG | 0.00753
52 | ATCTTGGG | -0.0808
53 | GTGTGACA | 0.221
54 | GGACGGCA | 0.25
55 | CGGATCGC | -0.025
56 | AACTTTCT | 0.091
57 | ATTTCTCC | 0.0767
58 | ATAGTAGC | 0.0615
59 | AATGCGCC | 0.00626
60 | GGAAGGCA | -0.022
61 | CCATTTTA | 0.151
62 | CGTGGCCA | -0.171
63 | GTTGATAA | 0.196
64 | GGCCTCCA | -0.18
65 | ACGGCTTC | 0.0724
66 | GAGAATGA | 0.232
67 | CGACCACG | 0.0309
68 | CTGCAGCC | -0.19
69 | ATCGCCGC | 0.186
70 | GTCCGCGA | -0.173
71 | AAGGTGCC | -0.136
72 | AGTATGGC | -0.175
73 | CTGACAAC | -0.0434
74 | AGGTTTCG | -0.141
75 | ATCAGGAC | -0.0693

Row | Sequence | PBM E-score
76 | AAGCTGAA | -0.125
77 | ACTTGCCG | 0.00801
78 | ATCGAGTG | 0.0765
79 | GGAGCACC | -0.327
80 | ATGATATA | 0.31
81 | CTACTCCC | -0.156
82 | AGGTGTAT | 0.11
83 | ATAGCACA | 0.0396
84 | ACGGTTAC | 0.104
85 | CGTAAACG | 0.132
86 | CTTGGGAC | -0.246
87 | CCGCAATC | 0.00752
88 | AGAGTCTC | -0.245
89 | CCTTAACA | -0.00162
90 | AGGGGATA | -0.17
91 | ATTTAGTG | 0.199
92 | TAATAGCA | 0.0705
93 | GCCCCCGA | -0.373
94 | ATTTCTTA | 0.159
95 | ACTGTTGG | -0.254
96 | AGACGAAT | 0.0634
97 | CGATGAAG | 0.0389
98 | AAGCATCG | 0.0512
99 | ATCTTCCG | 0.0604
100 | ACCGATCT | -0.175

Row | Sequence | PBM E-score
101 | ATACAAAT | 0.285
102 | GCCAACGC | -0.0319
103 | GATCAATC | 0.0348
104 | AAACAGGA | 0.0722
105 | CAGCGCTG | 0.0487
106 | CCGTAGGA | -0.0533
107 | CCCTTTAG | -0.3
108 | CTACTAGA | -0.00554
109 | AAGACGAA | 0.0158
110 | TAATGCAA | 0.209
111 | ATCTCTCC | -0.126
112 | CAAATATG | 0.191
113 | CTAACCAG | -0.086
114 | ATACGAAG | 0.102
115 | AAATAAAC | 0.259
116 | CCGACAGC | -0.315
117 | CTACCGTA | 0.0736
118 | ACCGTTTC | 0.0295
119 | AAGTCTGT | -0.0295
120 | GACCGCCC | -0.326
121 | CGGGTTGC | -0.00711
122 | CTCAGCAC | -0.177
123 | CACCAGCA | 0.0999
124 | ACGCAACA | 0.276
125 | GATCACCA | 0.147

Row | Sequence | PBM E-score
126 | CCGGGGTC | -0.207
127 | ATCAAGGC | -0.114
128 | ATGGCTGG | -0.248
129 | ACATCCGT | 0.0894
130 | GTTCCCTA | -0.169
131 | ACTACGAA | 0.114
132 | GCTACCTA | 0.0891
133 | GTGATGCA | 0.383
134 | GTGGAGAA | -0.151
135 | TACGCGTA | -0.0895
136 | CCTTCGCA | -0.0803
137 | CGGGTTGA | -0.14
138 | CCTGGAAA | -0.0989
139 | AAACGGCC | 0.084
140 | ATGGGTAC | 0.0213
141 | TAAAGCGA | 0.0693
142 | AACCATCT | -0.174
143 | AGTTTAGG | -0.159
144 | CACGATGC | 0.0599
145 | GAGCGGTA | -0.027
146 | CTTCGTCC | -0.155
147 | ACAAAAGA | 0.29
148 | AGTCCGCA | -0.0826
149 | CGTCCGTC | -0.218
150 | TCTTGTCA | 0.2

Row | Sequence | PBM E-score
151 | CGATAATA | 0.143
152 | TAAATTTA | 0.237
153 | AACGTCCG | -0.144
154 | GATCACTA | 0.0963
155 | AACGTATA | 0.215
156 | CGCATGAG | -0.162
157 | ATTACAAT | 0.196
158 | ATTCGTCG | 0.0126
159 | TGGTGTAA | 0.1
160 | CACTCCCA | -0.148
161 | AAACTACG | 0.0181
162 | AACTAAAA | 0.233
163 | CGGAAAAC | -0.056
164 | CATAGATC | -0.0174
165 | CGTTCGAA | 0.233
166 | AATGCAGA | 0.0493
167 | CCCCTCGC | -0.276
168 | GGACTACA | -0.197
169 | GCTGATAA | 0.0863
170 | ATAGCAGG | -0.0184
171 | AACTCAGG | -0.108
172 | CGCTGTAG | -0.126
173 | CGTCTTAG | -0.136
174 | AGGAGATA | -0.0562
175 | GGGCCGTA | 0.116

Row | Sequence | PBM E-score
176 | ACGCGGAG | -0.0149
177 | CGGTCCCC | -0.411
178 | GACCAGAC | -0.163
179 | CTCGTCAG | 0.127
180 | CCGCTCTC | -0.132
181 | ACATGCCA | -0.0166
182 | AATAATTC | 0.205
183 | ATCCCTGC | -0.24
184 | ACCCAGAA | 0.1
185 | AAATTAGG | 0.164
186 | AGGACTAC | -0.335
187 | AAGAGTCC | -0.322
188 | ATTTAGGA | 0.0979
189 | CAGGCACC | -0.213
190 | GCCTCTGA | -0.042
191 | ATAATGAA | 0.259
192 | CGCCTTGC | 0.195
193 | TGACGTAA | 0.499
194 | AGGATTTG | -0.0475
195 | CCGCCTGC | -0.123
196 | CCACTCAA | 0.145
197 | ATATGACA | 0.304
198 | CTACCACA | -0.155
199 | CATGGCGA | -0.0864
200 | ATGTTGGG | -0.11

Row | Sequence | PBM E-score
201 | AGGAAGGA | -0.227
202 | AACCCTTA | 0.0775
203 | TACAGCAA | -0.00029
204 | CGGGTTCC | -0.141
205 | AACTGAAC | -0.122
206 | CCAGCTGA | -0.0684
207 | CATAAAAC | 0.0797
208 | GGGGGAGA | -0.268
209 | ATTCGACA | -0.106
210 | AGCCGCGG | 0.195
211 | AGGACGGC | -0.0173
212 | GCTAGGCA | -0.246
213 | ACACCTTC | -0.0331
214 | ATCGCAGC | -0.00142
215 | GCTGTAAA | 0.00837
216 | ATACACAA | 0.154
217 | AAACGGGG | -0.0666
218 | CCGGCAGC | -0.237
219 | AGGCTCCG | -0.0345
